Values belong to the binder of their own block, whether it stands above or below them.
Assays:
[1] = biological target: T1, EGFR on EGFR and cMET co-expressed tumor cell lines (UniProt P00533); test: flow cytometry, HT-29 cells (co-express EGFR and cMET; both arms contribute)
T1 construct: whole, on cells

[2] = biological target: T2, cMET on EGFR and cMET co-expressed tumor cell lines (UniProt P08581); test: as above
T2 construct: whole, on cells

[3] = biological target: T3, Human EGFR (human, UniProt P00533); test: ELISA, coated human EGFR, anti-human Fc-HRP
T3 construct: recombinant protein; also called human EGFR recombinant protein

[4] = biological target: T4, human HER4 recombinant protein (human, UniProt Q15303 26-649, limits assumed); test: ELISA, coated human HER4, anti-human Fc-HRP
T4 sequence (looked up): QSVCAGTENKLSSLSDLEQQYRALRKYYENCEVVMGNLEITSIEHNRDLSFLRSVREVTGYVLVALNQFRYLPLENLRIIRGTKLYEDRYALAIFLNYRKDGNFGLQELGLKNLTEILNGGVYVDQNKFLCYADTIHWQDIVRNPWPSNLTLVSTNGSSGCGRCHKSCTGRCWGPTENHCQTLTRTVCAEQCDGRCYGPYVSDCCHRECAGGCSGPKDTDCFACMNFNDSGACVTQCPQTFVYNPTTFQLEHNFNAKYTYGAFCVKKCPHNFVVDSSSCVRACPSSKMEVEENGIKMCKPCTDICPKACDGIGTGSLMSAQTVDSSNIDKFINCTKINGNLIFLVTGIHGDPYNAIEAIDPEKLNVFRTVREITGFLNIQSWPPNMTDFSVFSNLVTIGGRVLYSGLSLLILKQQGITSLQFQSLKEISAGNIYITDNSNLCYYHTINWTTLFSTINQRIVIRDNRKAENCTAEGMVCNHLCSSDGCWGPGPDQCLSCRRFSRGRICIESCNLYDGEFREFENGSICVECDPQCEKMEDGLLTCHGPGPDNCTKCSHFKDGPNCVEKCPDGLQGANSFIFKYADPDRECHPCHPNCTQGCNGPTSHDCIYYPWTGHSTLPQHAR

[5] = biological target: T1, EGFR on EGFR and cMET co-expressed …; test: flow cytometry, SNU-5 cells (co-express EGFR and cMET; both arms contribute)
[6] = biological target: T2, cMET on EGFR and cMET co-expressed …; test: as above
[7] = biological target: T5, Human cMET (human); test: ELISA, coated human cMET, anti-human Fc-HRP
T5 construct: recombinant protein; also called human cMET recombinant protein

[8] = biological target: T4, human HER4 recombinant protein; test: ELISA, plate coated with 100 ng/well human HER4 recombinant protein, HRP anti-human Fc, OD450
[9] = biological target: human HER2 recombinant protein (human, UniProt P04626 partial chain); test: ELISA, plate coated with 100 ng/well human HER2 recombinant protein, HRP anti-human Fc, OD450

- EC50 (read off the curve) [1]: ~2 nM
- EC50 (read off the curve) [2]: ~2 nM
- EC50 (read off the curve) [3]: ~0.5 nM
- binding result [4]: no binding (tested: about 130 nM)
- EC50 (read off the curve) [5]: ~3 nM
- EC50 (read off the curve) [6]: ~3 nM
- EC50 (read off the curve) [7]: ~2 nM
B1: Bsab 67 (bispecific antibody, human IgG1, kappa, L234A L235A)
chain 1: AIQLTQSPESLSASVGDRVTITCRASQDISSALVWYQQKPGKAPKLLIYDASSLESGVPDRFSGSESGTDFTLTISSLQPEDFATYYCQQFNSYPLTFGGGTKVEIKRTVAAPSVFIFPPSDEQLKSGTASVVCLLNNFYPREAKVQWKVDNALQSGNSQESVTEQDSKDSTYSLSSTLTLSKADYEKHKVYACEVTHQGLSSPVTKSFNRGECGGGGSGGGGSGGGGSGGGGSGGGGSGGGGSGGGGSGGGGSQVQLVESGGGVVQPGRSLRLSCAASGFTFSTYGMHWVRQAPGQGLEWVAVIWDDGSYKYYGDSVKGRFTISRDNSKNTLYLQMNSLRAEDTAVYYCARDGITMVRGVMKDYFDYWGQGTLVTVSSASTKGPSVFPLAPSSKSTSGGTAALGCLVKDYFPEPVTVSWNSGALTSGVHTFPAVLQSSGLYSLSSVVTVPSSSLGTQTYICNVNHKPSNTKVDKKV[omitted - human IgG1 Fc with L234A L235A Y349C T366W (EU numbers)]
chain 2: DIVMTQSPDSLAVSLGERATINCKSSESVDSYANSFLHWYQQKPGQPPKLLIYRASTRESGVPDRFSGSGSGTDFTLTISSLQAEDVAVYYCQQSKEDPLTFGGGTKVEIKRTVAAPSVFIFPPSDEQLKSGTASVVCLLNNFYPREAKVQWKVDNALQSGNSQESVTEQDSKDSTYSLSSTLTLSKADYEKHKVYACEVTHQGLSSPVTKSFNRGECGGGGSGGGGSGGGGSGGGGSGGGGSGGGGSGGGGSGGGGSQVQLVQSGAEVKKPGASVKVSCKASGYIFTAYTMHWVRQAPGQGLEWMGWIKPNNGLANYAQKFQGRVTMTRDTSISTAYMELSRLRSDDTAVYYCARSEITTEFDYWGQGTLVTVSSASTKGPSVFPLAPSSKSTSGGTAALGCLVKDYFPEPVTVSWNSGALTSGVHTFPAVLQSSGLYSLSSVVTVPSSSLGTQTYICNVNHKPSNTKVDKKVEPKSCDKTHTCPPCPAPEAAGGPSVFLFPPKPKDTLMISRTPEVTCVVVDVSHEDPEVKFNWYVDGVEVHNAKTKPREEQYNSTYRVVSVLTVLHQDWLNGKEYKCKVSNKALPAPIEKTISKAKGQPREPQVYTLPPCRDELTKNQVSLSCAVKGFYPSDIAVEWESNGQPENNYKTTPPVLDSDGSFFLVSKLTVDKSRWQQGNVFSCSVMHEALHNHYTQKSLSLSPGK
notes: two chains, one knob and one hole; also called Basb 67

- binding result [8]: no binding
- binding result [9]: no binding
B2: Bsab 67-LD038 (5) (bispecific antibody, human IgG1, kappa, L234A L235A)
chain 1: B1 chain 1
chain 2: B1 chain 2
modifications: LD038 drug-linker coupled after TCEP reduction; DAR 5.1 by LC-MS; sites not given
notes: also called Basb 67-LD038 (5)

Source: patent publication US20250381289A1 (Genmab, published 2025)
